This is one part of the list.

Binding signal data for 22 molecules are collected here from article PMC12136788.

First the molecules themselves.
B1: chr16:87731977:87731978:+_ENSMUSG00000025612_ENSMUST00000026703|mus_mus|FALSE|FALSE (ssRNA)
RNA: GGGAGUUCUACAGUCCGACGAUCAUGUACUUUCACACAGUGAGCACUCUCUCCCAGGAAAAUUGAGUGGACUUCUCAAAAUUUCUAGAAAAUAAUUCCAAUUUAAUUUUCUCUUCCAAAGAUGAAAACACAUACCACCCUUCCCAACAGAGGAUUGAGCAUCA
B2: chr19:8871877:8871878:-_ENSMUSG00000071662_ENSMUST00000096261|mus_hu|FALSE|FALSE (ssRNA)
RNA: GGGAGUUCUACAGUCCGACGAUCGCCUGGCUGGAUCACACCAGCACCAAUAUUGUCAAUGGUGGUGACAGCAAUUACAAAGCCAUACUUCCCUGUGCAGGUCCCCUCCACCUCGGUGAAGAGCUUCUGCUUCACCGUGUUGAGCAACAGAGGAUUGAGCAUCA
B3: 61391936_61396343_1189_CDS_ENSG00000170921_ENST00000424789|human|control|control (ssRNA)
RNA: GGGAGUUCUACAGUCCGACGAUCUGGCAGCUCUCUGUUGGCAUCCACAUGUUUGGGGGAGGCAUGUGGGCUGUCUGAGGCGAUCUGUCUCAUCCUUGUACCAUGGCAGCUGAGGGCCACCAGUCUGGAGAUGAUGGCAGUUUUCAACAGAGGAUUGAGCAUCA
B4: chr1:10364632:10364633:+_ENSG00000054523_ENST00000377093|hu_hu|FALSE|FALSE (ssRNA)
RNA: GGGAGUUCUACAGUCCGACGAUCUCGACCAGCUUUGAGAUUGGGUGCUGAGAACUGUCUCCUCAUCCGCGGAGGUGUCACAAACUGGCUACAGUGGCUGGGUUUGUCAGUCUGCUUCUGAUAGGAAGUGGCUGCAUUGCCCUCCAACAGAGGAUUGAGCAUCA
B5: chr7:138125181:138125182:+_ENSMUSG00000006205_ENSMUST00000006367|mus_mus|FALSE|FALSE (ssRNA)
RNA: GGGAGUUCUACAGUCCGACGAUCGAUGCCCGCCGUCACCUUCAAGGUGUUAAUCCCAAUCACCUCGCCAUCCAGGUUUACUAACGGGCCUCCGGAAUUUCCAUAAUUGAUGAUAGCGUCUGUCUGAAUGUAGUCCAUAUCGGACAACAGAGGAUUGAGCAUCA
B6: chr2:28002375:28002376:+_ENSG00000243147_ENST00000296102|hu_mus|FALSE|FALSE (ssRNA)
RNA: GGGAGUUCUACAGUCCGACGAUCCUUCAUUGCACACUGCAGAGUUCGAAACGGUGCCUCACCCUCGAGCUUCUCAUUUAGGAAUCAAAUUCAUUUUCAAUCCACUACUCAGAGGGAACGGAUUUUUUUCUGUUCCACAAAGAGCAACAGAGGAUUGAGCAUCA
B7: chr9:99427540:99427541:-_ENSMUSG00000032468_ENSMUST00000035043|mus_hu|FALSE|FALSE (ssRNA)
RNA: GGGAGUUCUACAGUCCGACGAUCUUCUCCAUCAACCAAAACAUUUACCAGGGUCAUCGAUACCUGGGGGUUUUCAAAAGCUAAAACUGAGAAACAUUUCAGUGCUUGCAUUCGAACUUUGUAGGACAGUGAGGUUAGUAGGUGCAACAGAGGAUUGAGCAUCA
B8: chr6:41757443:41757444:+_ENSG00000214736_ENST00000398881|hu_mus|hu_hu_hu_mus_False|38_68 (ssRNA)
RNA: GGGAGUUCUACAGUCCGACGAUCGAACCGUGCAGAGGCAACAUCUCAGCCGACACUGGGGGAUGGGGGAACAAAAGGGGGGGGUUCAGGCAAGGAGAAGAAAAGUGCUUCAGCUGCCACUCAGGUAGGAUCUUGUGGUCACAGCAACAGAGGAUUGAGCAUCA
B9: 38065126_38065246_7389_3pUTR_ENSMUSG00000021427_ENSMUST00000021864|mouse|control|control (ssRNA)
RNA: GGGAGUUCUACAGUCCGACGAUCGCCAGGGAGAAAUCAAAAGAAACAUGAAAGACCACGAGCCUUGCGAGGGGAACGGAGGCAGCCAGAAGCACAGAGGACACUCUGACAAAAGAGAAGCUGACACAGAGAAGGAUCUGUAGGCAACAGAGGAUUGAGCAUCA
B10: 107187324_107187444_78_3pUTR_ENSG00000125266_ENST00000245323|human|control|control (ssRNA)
RNA: GGGAGUUCUACAGUCCGACGAUCCCCAGCUCCGCGCACUCCGGGCCAAGAAGGGACUGACGGGACGCAGGCUGGGACCCCCAAUCCUCCGGGGCAGACUGGCGGGGAAGACGGCGUGCGCCCGCAGGCAGCUCCGAGGCGCGCCAACAGAGGAUUGAGCAUCA
B11: chr1:36758251:36758252:+_ENSG00000054118_ENST00000354618|hu_hu|FALSE|FALSE (ssRNA)
RNA: GGGAGUUCUACAGUCCGACGAUCGUGUAUCUCUGGGCUUUUCUUGUUUUUGGCUGCCUCCUGCUCAGUUCCUCUCUUUAGGUAUUUAGUAAAGCGUUCAUGUAAUGUCAUUCCUGAGGACCCAAAGUGAUGCUCUUUAACAUGCAACAGAGGAUUGAGCAUCA
B12: 58329776_58329896_94_5pUTR_ENSMUSG00000027810_ENSMUST00000029387|mouse|control|control (ssRNA)
RNA: GGGAGUUCUACAGUCCGACGAUCAAGUCUGCGAGUCGGUGUUUCCGGCGCCGCCAGCCUCGGGGCCAAUCCACGUCUGGUUCCCGAGCGCGCACGCGCAGCUCUGGCUCCUCGUUUUCCGGAGCGGGGAAGAGCCUGGCUGCGCAACAGAGGAUUGAGCAUCA
B13: chr17:74307696:74307697:-_ENSG00000161542_ENST00000324684|hu_hu|FALSE|FALSE (ssRNA)
RNA: GGGAGUUCUACAGUCCGACGAUCGUUUCGGAAAAGGUAGGCCAUGGACUCUCCAUUGUGGAUUCUCCGAAUGGCUUCAGAAAGAAUCAAACUGAUAUCCACAGUCUUUAUCUUGGGACAUUGCAGCUUCUGAACCUCAUGAGGCAACAGAGGAUUGAGCAUCA
B14: 3117114_3117873_1036_CDS_ENSG00000197386_ENST00000355072|human|control|control (ssRNA)
RNA: GGGAGUUCUACAGUCCGACGAUCGGUGAGCAGCACGCCAAGAAUCAGCAGAGUGGAGUGUUCAUCCUCGACAGGAACGAGUAAGCCUAAGAGCACAUUUAGUAGCCAACUAUAGAAAUAUUGUGUCCUUCUUGAGUGCUGGCACAACAGAGGAUUGAGCAUCA
B15: 71096126_71096246_1001_CDS_ENSG00000114861_ENST00000475937|human|control|control (ssRNA)
RNA: GGGAGUUCUACAGUCCGACGAUCCCCGGGCUGAAUUGUCAGAAGGCCUUGGCGCUGCAAAGACAGGAGGUGCUGCUGCUGUAACUGCUGCAUCUGUAAAAGCUGCUGCUGAAAAGCCAACUGCUGGGUAGCCACCUGCUGUUGCAACAGAGGAUUGAGCAUCA
B16: chr7:54825262:54825263:-_ENSG00000132432_ENST00000352861|hu_hu|hu_hu_hu_mus_False|98_108 (ssRNA)
RNA: GGGAGUUCUACAGUCCGACGAUCCUGACUUGGCUCAACAAACUGCAGCAUUACCUGAUCCAUGUUUGUUGGAUGGCGGAUUGAGAGCGUAGAGACACGUAGCUCAGGAGAGAACCGAGCCCAACGGAACCGGAAGCUGGCAACCAACAGAGGAUUGAGCAUCA
B17: chr7:40134317:40134318:+_ENSG00000065883_ENST00000340829|hu_hu|FALSE|FALSE (ssRNA)
RNA: GGGAGUUCUACAGUCCGACGAUCGGAAGGGUCACUGCUGUUUGCCAGGACUGCAAUAGGACCAUGGCUAUAUUCAAAUCUAUGGUCCUUGUCUCCACUAAACAACAUGGGACCAGCAUUGAGGUAAAUGUCUCCAUAUCCAGCCAACAGAGGAUUGAGCAUCA
B18: chr2:156005782:156005783:-_ENSMUSG00000027620_ENSMUST00000109587|mus_mus|motif|central (ssRNA)
RNA: GGGAGUUCUACAGUCCGACGAUCGCGGUACCGCCCAACCCGAAUAUCGGGCCCCGAGGGCGUCUAGGCCCAAGCGAAUCGGAAAGAAACAAUGGGAUUAAAGGAGCCCGCGACGGAGAGCAGGGCAGCGGCUUCGGCAGCUCACAACAGAGGAUUGAGCAUCA
B19: chr7:141445308:141445309:+_ENSG00000106028_ENST00000265304|hu_hu|hu_hu_hu_mus_False|58_98 (ssRNA)
RNA: GGGAGUUCUACAGUCCGACGAUCUAUGAUUGUUGUUGCUUGUCGCCUCACAUUGUUUUUAUCCAUGUACUCGCCAUAGUCUAUUUUCCCUUCCACAAAUAUACGAGCCCCCUUUUUCACAUACUGAUAUGCCACAUCUCUGAGCAACAGAGGAUUGAGCAUCA
B20: chr1:180251892:180251893:+_ENSMUSG00000026500_ENSMUST00000027781|mus_mus|FALSE|FALSE (ssRNA)
RNA: GGGAGUUCUACAGUCCGACGAUCAUGAGCCAUAGAGUAUAGAUUCUCGAGCACAUGGAGUGUUCUCAACAUCUAAAAUACCUAGGAGCUUGAAGGGCUUUUUCUCCGUCUCGUGGGGCUCCGGGGCGGCCGCCAUGGGCACCACAACAGAGGAUUGAGCAUCA
B21: chr16:94690093:94690094:+_ENSMUSG00000040785_ENSMUST00000117648|mus_hu|mus_mus_mus_hu_True|1_1 (ssRNA)
RNA: GGGAGUUCUACAGUCCGACGAUCGGGCUGGGAUGACGGACACACAGCCUCGAUUCCAGGGGGAAAAAGUCUUAGUCGAUACUAAUUAAAAAGUGUUAAUGAUUUUUGAAAAUCAGAUUACAUCUAUAAAAGAUGAAAGCACUUCAACAGAGGAUUGAGCAUCA
B22: chrX:17854524:17854525:+_ENSMUSG00000037369_ENSMUST00000044484|mus_mus|motif|central (ssRNA)
RNA: GGGAGUUCUACAGUCCGACGAUCUCGAGAAUUACUCUCAUUAGUGACAAAAAGCAGAUCAAAAACCUCCACCUCACAAAUACGGCAAUAAUGAGCUGGUUCUUCUUUUGUCCGCCCGUGCCAUAUGAUCUCUUUUCCUGCAGCCAACAGAGGAUUGAGCAUCA

The target of this experiment is T1, UNK ZnF1-3 (human, UniProt Q9C0B0 31-174).
T1 sequence: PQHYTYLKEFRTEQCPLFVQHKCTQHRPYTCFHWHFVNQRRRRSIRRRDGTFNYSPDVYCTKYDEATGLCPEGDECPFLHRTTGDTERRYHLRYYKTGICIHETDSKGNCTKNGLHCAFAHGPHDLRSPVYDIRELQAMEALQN
Briefly: nsRBNS (natural sequence RNA bind-n-seq); RBNS binding buffer (assumed for nsRBNS): 25 mM Tris pH 7.5, 150 mM KCl, 3 mM MgCl2, 0.01% Triton X-100, 500 ug/ml BSA, 20 U/ml SUPERase-In, 4 C; UNK is unkempt and MSI1 is Musashi-1; names of the RNAs are library labels; protein concentration not given here; high values mean tight binding.
The molecule B1 registered a binding signal of 1.65 enrichment R.
In the case of B2 it was 0.609 enrichment R.
In the case of B3 it was 0.439 enrichment R; in that of B4, 0.491 enrichment R.
In the case of B5 it was 0.793 enrichment R; in that of B6, 0.725 enrichment R.
Regarding B7, the binding signal was determined as 1.51 enrichment R.
B8 yielded a binding signal of 2.15 enrichment R.
In the case of B9 it was 2.1 enrichment R.
In the case of B10 it was 0.661 enrichment R; in that of B11, 0.822 enrichment R.
In the case of B12 it was 0.264 enrichment R.
Turning to B13, the binding signal was 0.538 enrichment R.
As for B14, the binding signal turned out to be 1.61 enrichment R.
The molecule B15 registered a binding signal of 1.18 enrichment R.
In the case of B16 it was 1.14 enrichment R; in that of B17, 1.54 enrichment R; in that of B18, 1.12 enrichment R.
Molecule B19 gave a binding signal of 0.518 enrichment R.
Molecule B20 yielded a binding signal of 1.46 enrichment R.
In the case of B21 it was 0.667 enrichment R; in that of B22, 0.956 enrichment R.
